Source: US20240279313A1, “BARRIER FUNCTION PRESERVING PEPTIDES FOR MEMBRANES” (priority 2021, published 2024)

How the values were obtained:
[1] = SAXS, suppression of PG-1-induced cubic phases (NGC); conditions: PG-1 P/L 1/40, apoMP1 P/L varied
Source text: Since apoA-I assembles spheroidal HDL particles with small radii, it can stabilize positive membrane curvature by definition. […] To test the idea that an apoMP may suppress H4n pore-forming activity via membrane-mediated interactions, we developed a theoretical model (Supporting Information) for mixtures of two membrane-bound peptides (or proteins), one inducing negative (−) Gaussian curvature (ex: saddle-shaped deformations from H4n) and the other positive (+) Gaussian curvature (ex: dome-shaped deformations from apoMP1), in which positive curvature is induced in the membrane with no assumed preferred direction. Each peptide is taken to induce local principal curvatures in the membrane, ξ1 and ξ2, which work against the membrane deformations given by the Helfrich free energy over the membrane area FHelfrich=(π/2)∫dA(a2+a2)^2 with bending rigidity κ. The energy of a single (±) peptide is E2/(kBT)≡(λ/2)[(a1−ξ1,z)^2+(a2−ξ2,z)^2] when the peptide's maximal curvature is aligned with the membranes, where (λ/2)+(ξ1, ±^2+ξ2, ±^2) is the energy cost of binding a peptide to a flat membrane, λ is a dimensionless coupling constant, and the induced principal curvatures depend on the peptide type. Analogous to classical nucleation theory, the free energy scales as E=−σπΓ for a pore of radius r and pore rim line tension Γ on a membrane with effective surface tension σ. […]

[2] = SAXS, effect of apoMP1 on inverse hexagonal phase; conditions: FIG. 3d
Description: FIG. 3. Apolipoprotein A-I mimic apoMP1 inhibits the pro-lytic membrane activity of histone H4 N-terminus and unrelated peptides. FIG. 3(a) SAXS spectra of PS/PE/CH 20/70/10 SUVs incubated with H4n and apoMP1. The P/L molar ratio of H4n was held constant at 1/40, while the P/L molar ratio of apoMP1 was varied. […] FIG. 3(b) SAXS spectra of PS/PE 20/80 SUVs co-treated with the AMP PG-1 (NGC-generating peptide) and apoMP1. The P/L molar ratio of PG-1 was held constant at 1/40, while the P/L molar ratio of apoMP1 was varied. […] FIG. 3(c) SAXS spectra of PS/PE 20/80 SUVs co-treated with the CPP HIV-TAT (NGC-generating peptide) and apoMP1. The P/L molar ratio of HIV-TAT was held constant at 1/40, while the P/L molar ratio of apoMP1 was varied. […] FIG. 3(a-d) Observed reflections for the Pn3m cubic (green), Im3m cubic (yellow), hexagonal (blue), and lamellar (red) phases have been assigned on the curves. (e) Schematic portrayal of the suppression of H4n-induced NGC generation and pore formation by apoMP1.
Since apoA-I assembles spheroidal HDL particles with small radii, it can stabilize positive membrane curvature by definition. […]

[3] = SAXS of SUVs with NGC-generating peptide alone; conditions: P/L 1/40; PS/PE 20/80 SUVs
Description: Before assessing how apoMP1 may influence the pore-forming activity of H4n, we conducted a control study to confirm H4n's ability to generate membrane-destabilizing curvature at lipid compositions of interest. Small unilamellar vesicles (SUVs) were prepared from ternary lipid mixtures of phosphatidylserine (PS), phosphatidylethanolamine (PE), and cholesterol (CH) at molar ratios of PS/PE 20/80 and PS/PE/CH 20/70/10. Because cholesterol constitutes a large fraction of mammalian cell membranes,^41 we used physiologically relevant cholesterol-containing SUVs to examine the effect of cholesterol on the membrane-remodeling properties of H4n. For the model membrane PS/PE 20/80, we observed a coexistence of three phases: (1) a lamellar phase (Lα) (peaks with q-ratios 1:2:3), (2) an inverse hexagonal phase (HII) (peaks with q-ratios √1:√3:√4:√7:√9), and (3) a Pn3m inverse bicontinuous cubic phase (QII) with a lattice parameter of 20.03 nm (peaks with q-ratios √2:√3:√4) (FIG. 2d). The Pn3m phase is rich in NGC (FIG. 2c). For the cholesterol-containing model membrane PS/PE/CH 20/70/10, we again observed a similar phase coexistence, but with a smaller lattice parameter in the Pn3m phase (18.30 nm) (FIG. 2d, Table S1). […] For Pn3m, χ=−2 and A0=1.919.

Substance | Effect on PG-1-induced Pn3m and Im3m QII phases (NGC) [1] | Effect on PG-1-induced Pn3m and Im3m QII phases (NGC) ([1]; listed as ApoMP1) | Phase transformation by apoMP1 [2] | Phase transformation by apoMP1 ([2]; listed as ApoMP1) | Phases induced by peptide alone [3]
D-W-F-K-A-F-Y-D-K-V-A-E-K-F-K-E-A-F (DWFKAFYDKVAEKFKEAF) [apoMP1] | suppressed at high P/L molar ratios | dose-dependent suppression | transform an inverse hexagonal phase with strong negative mean curvature into a lamellar phase with zero mean curvature | transform an HII phase with strong negative mean curvature into an Lα phase with zero mean curvature | 
R-G-G-R-L-C-Y-C-R-R-R-F-C-V-C-V-G-R (RGGRLCYCRRRFCVCVGR) [PG-1, antimicrobial peptide, NGC-generating] |  |  |  |  | Lα, HII, Pn3m QII, and Im3m QII phases
